# According to the supplement of paper PMC3334620:
# In all, about 33,000 sequences were measured (“E-score (-0.5 to 0.5)”: median about -0.011, highest 2% from about 0.28 on). The list shows a part of the results.
# Molecular target: T1, Gcr1 (UniProt P07261)
# T1 sequence: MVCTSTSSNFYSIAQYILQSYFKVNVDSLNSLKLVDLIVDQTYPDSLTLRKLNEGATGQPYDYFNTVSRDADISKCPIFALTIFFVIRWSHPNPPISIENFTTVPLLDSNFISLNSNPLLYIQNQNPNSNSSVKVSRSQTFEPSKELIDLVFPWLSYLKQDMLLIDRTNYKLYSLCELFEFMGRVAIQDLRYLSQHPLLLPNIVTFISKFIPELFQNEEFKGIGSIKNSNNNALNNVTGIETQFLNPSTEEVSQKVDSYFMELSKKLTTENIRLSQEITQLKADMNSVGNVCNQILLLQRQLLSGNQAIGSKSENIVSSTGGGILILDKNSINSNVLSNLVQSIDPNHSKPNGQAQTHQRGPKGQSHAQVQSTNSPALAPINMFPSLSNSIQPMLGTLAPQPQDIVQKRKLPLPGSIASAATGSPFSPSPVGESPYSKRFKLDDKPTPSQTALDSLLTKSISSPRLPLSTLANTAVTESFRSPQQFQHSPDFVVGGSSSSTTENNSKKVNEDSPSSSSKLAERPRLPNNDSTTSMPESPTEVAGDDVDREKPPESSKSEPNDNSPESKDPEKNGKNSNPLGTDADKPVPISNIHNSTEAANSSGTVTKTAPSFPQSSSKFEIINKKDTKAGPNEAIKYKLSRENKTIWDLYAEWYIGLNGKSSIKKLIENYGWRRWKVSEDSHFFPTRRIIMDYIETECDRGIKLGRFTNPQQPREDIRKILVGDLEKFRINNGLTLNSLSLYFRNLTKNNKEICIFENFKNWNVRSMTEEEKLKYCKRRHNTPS
# Test: PBM E-score (8-mer binding enrichment) (E-score (-0.5 to 0.5)); higher = stronger / more preferred TF binding; most listed sequences are background and not binding sites
# Settings: protein concentration: 100 nM; construct: GST-full length
# Description: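 Universal 'all 10-mer' protein binding microarrays (Agilent AMADID 015681) probed with GST-tagged S. cerevisiae TFs (full-length or DBD) made by in vitro transcription/translation (PURExpress), about 100-200 nM. Bound TF was detected with fluorescent anti-GST. Each ungapped 8-mer (which stands for itself and its reverse complement) is scored by the PBM enrichment score (E-score), a modified Wilcoxon-Mann-Whitney statistic from -0.5 to +0.5, computed with the Universal PBM Analysis Suite. Scale: above 0.35 generally sequence-specific binding.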
row,Sequence,PBM E-score
1,CGGCGCGC,0.193
2,ATCCAAAC,-0.03
3,CGCTCGGA,0.0151
4,TAGTACCA,0.0841
5,CAGTTATA,0.0145
6,TCTGTGAA,0.0273
7,CCCGATAA,-0.0166
8,GTATTGCA,-0.0525
9,TATATTCA,0.0612
10,CCAAGTGG,0.0532
11,CAATAACG,0.0827
12,CCGTAGAC,-0.1
13,ACCTTCCT,0.0319
14,AACCCCTC,-0.0647
15,AACTAGCC,0.00513
16,GAAGCGGC,0.158
17,GACGTGAA,0.12
18,AGGGGGGC,-0.255
19,ACGGCCCC,-0.0114
20,ACAGCAAG,0.0255
21,CAGGAACA,-0.125
22,CTAGACAA,-0.119
23,CTAGTCGC,-0.0178
24,AAAACTTA,0.0958
25,AGCCAAGG,-0.00699

row,Sequence,PBM E-score
1,CCTTGCCC,-0.0706
2,AATTTCAG,0.0844
3,AATAACCG,0.0851
4,ATTTACAA,0.0394
5,TCCGTCAA,-0.0254
6,ATAACTTG,0.128
7,GCGGAACC,0.341
8,ACGCTACA,0.0449
9,GGTCCGAA,0.0333
10,ACACCAAC,0.085
11,TGTTGTAA,0.184
12,AGACTAGA,-0.0708
13,TACATATA,0.153
14,CCATCTTC,0.00634
15,TCACAGGA,0.117
16,ATGGCAGA,-0.00984
17,ATTGATCG,0.0313
18,AAACTGCG,-0.0517
19,ATGCGCGG,-0.231
20,GTTTGTTA,0.074
21,CACACCAC,0.142
22,AATCCTTC,-0.217
23,TACGTTCA,-0.174
24,CAACGTGA,0.0644
25,ATGATGCG,0.0591

row,Sequence,PBM E-score
1,CCGCGCCG,-0.0482
2,CCCGAGTC,-0.219
3,CCAGCAAC,0.227
4,CGGATTTA,-0.0267
5,AGACATAC,-0.107
6,AGAGGCAT,0.223
7,ATCGTAGC,-0.0134
8,GACAACTA,-0.0831
9,AAGCATAA,0.172
10,GATGCTAA,0.372
11,ACTCCGGC,0.0577
12,ACGGCGAC,-0.00151
13,AATTTAGG,0.206
14,AGCGTCCG,0.165
15,AGTGTGAA,-0.11
16,GAATGTTA,0.0174
17,AAAGAGAC,0.0252
18,ATGCATCG,-0.0288
19,GTCATGTA,0.137
20,GCGATCAA,0.0409
21,TCAATCCA,-0.128
22,ATGGGTTG,0.0709
23,CTAAGCAG,-0.0109
24,GCACCCAA,0.303
25,CTACCCTC,-0.224

row,Sequence,PBM E-score
1,ACCAGCAA,0.0307
2,ACGAGCCT,-0.0689
3,AGCTAGAC,0.113
4,AGCGTATC,0.184
5,CGTAGGCC,-0.185
6,GCCCTCGA,-0.0995
7,GATTGGCA,0.0933
8,GGACTTAC,-0.113
9,CCGGTCCG,-0.0945
10,CCCGTCTC,-0.0723
11,TCCGAGGA,0.174
12,ATGAGATA,0.104
13,CCTCCTGA,0.0439
14,CAGTCGTC,-0.224
15,CATCGAGC,-0.165
16,CTCCGGTC,-0.171
17,GAATGGCC,-0.116
18,AGCGTCTC,0.22
19,AAGGACCG,-0.192
20,CAGCGTAG,0.0413
21,CATGTCGG,-0.16
22,GACACGTA,-0.0389
23,GGCTCACA,-0.0642
24,AGTCCTAG,-0.167
25,CCTCCGTA,-0.0539

row,Sequence,PBM E-score
1,GAGTATGC,-0.0589
2,CTACTTAA,0.195
3,CATTCAAG,-0.0372
4,AAGCGTTG,-0.2
5,AGGAGAGC,-0.137
6,CTATAGCA,0.041
7,CGGAGCCC,0.218
8,AGAAGACA,-0.0574
9,TATTTCCA,0.171
10,CGTGGTAC,-0.227
11,AAAAATGG,0.145
12,TCCATACA,0.171
13,ACTTGACC,-0.198
14,ACCGTGAC,-0.182
15,CCGGGCAG,0.0407
16,CAGCCGCG,0.0333
17,ATACAGTA,-0.112
18,GCGGAAGC,0.314
19,GTGATAGA,-0.133
20,GCAATGAA,-0.116
21,ACTTCACT,-0.0657
22,AGTTGGCA,0.107
23,AATAAGGA,-0.0501
24,ATTTAAAG,0.198
25,GGCTTAGA,-0.00607

row,Sequence,PBM E-score
1,AACTCCAG,-0.0562
2,CTGCTCAA,-0.00432
3,GGCAAGCA,-0.155
4,ACTGTGAC,-0.0646
5,AACCATAG,-0.00302
6,CATTCCAC,0.0952
7,CCGCGATC,-0.141
8,CTGGGACC,0.0278
9,ACACACGT,0.023
10,AGCAAAAA,0.126
11,TGGACTAA,-0.0217
12,AGTCCTAA,-0.0226
13,TAACACGA,0.0569
14,CTTAGTTA,0.0275
15,ACAGTCGG,-0.0818
16,GGATGACA,0.155
17,ATCCAAGG,-0.0791
18,AATTGAGT,0.0935
19,CGGTGCCC,0.231
20,AAAAAAGT,0.135
21,CTGTAACA,-0.0543
22,AAGGTCAT,-0.292
23,CCACATCA,0.127
24,ACTCTGTG,-0.0347
25,ACCCCTGA,0.0403

row,Sequence,PBM E-score
1,AACCCCGG,0.0409
2,ATGGATTC,0.272
3,TCACGGCA,0.014
4,CCGAGGCG,-0.0638
5,ACGTAATC,-0.147
6,CTTCCGTA,0.18
7,ACTATCGG,0.0484
8,CAATGTCA,-0.124
9,ATTGGACG,0.143
10,GTATATAA,-0.0455
11,AGAGAAAA,-0.0897
12,ACTTTGCC,-0.0796
13,AGTGACGG,0.0222
14,CACTACGG,0.0804
15,ACGACGGC,-0.239
16,ACATATAT,-0.132
17,TCCGATCA,0.0106
18,GTCAGTGA,-0.0527
19,AGCCAAGA,0.0162
20,CAGCTGCC,0.352
21,AGTGTTTA,0.0198
22,CCCTTTGC,-0.225
